In all, about 3,600 compounds were measured (“viability index relative to DMSO control”: median about 0.81, lowest 2% from about 0.13 on). The list shows a part of the results.
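Note: 384-well serum-free SaLSSA: MitoTracker Red CMXRos staining with saponin lysis, high-content imaging, treated-well particle count divided by plate-mean count of DMSO wells.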

For the assay, the system named is Plasmodium falciparum NF54 stage V gametocytes. As to the kind of experiment: viability index relative to DMSO control (fraction); higher = less gametocyte killing. The conditions noted are these: 1.25 µM, incubation time: 72 h.
As to `CC(=O)Nc1ccc2nc(C)sc2c1`, the viability index was 0.764.
The figure for `CCc1nc2nc(C)cc(Nc3ccc4c(c3)OCCO4)n2n1` is 1.09; for `COc1ccc(CNC2CCN(c3cccc(NC(=O)C4CC4)c3)CC2)cc1` it is 1.12; for `COc1ccc(-n2c(SCC(=O)Nc3cc(Cl)ccc3OC)nnc2-c2ccccc2)cc1` it is 0.76.
Consider `Cc1cc(N2CCCCC2)nc(NCc2ccccc2)n1`, for which the viability index was found to be 0.743.
The figure for `O=C(Cc1ccccc1)NCc1nnc(SCC(=O)N2N=C(c3cccs3)CC2c2ccc(F)cc2)n1Cc1ccccc1` (stereo not given) is 0.884.
As to `Cc1nc(N)sc1C(=O)NN=Cc1cccc(Br)c1`, the viability index came to 0.971.
The figure for `CCN1/C(=C/C=C/c2oc3ccc4ccccc4c3[n+]2CC)Oc2ccc3ccccc3c21` is 0.4.
As for `CCN(CC)CCNc1ccnc2cc(Cl)ccc12`, the viability index worked out at 0.947.
To `O=C(NC1CCN(Cc2ccccc2)CC1)c1cc([N+](=O)[O-])cc([N+](=O)[O-])c1` belongs 1.03.
To `COC(=O)[C@@H]1C[C@@H](NC(=O)c2ccc(OC)cc2OC)CN1Cc1cccc2ccccc12` belongs 1.08; to `O=C1C(=O)c2ncccc2-c2cccnc21`, 0.995; to `CCOc1ccc(NC(=O)c2ccc(I)o2)cc1`, 0.902.
The figure for `COc1cc(NC2=CC(=O)C(=O)c3ccccc32)c(OC)cc1Cl` is 0.668; for `Cc1cc(C)n(CC(O)Cn2c3ccc(Br)cc3c3cc(Br)ccc32)n1` (stereo not given) it is 1.02.
`CC(=O)Nc1nc(C)c(-c2csc(Nc3ccc(Cl)cc3)n2)s1` gave a viability index of 0.362.
Molecule `O=C(NC(=CC=Cc1ccccc1)C(=O)N1CCOCC1)c1ccccc1` returned a viability index of 0.771.
The figure for `CC[n+]1c(C=C2Sc3ccccc3N2CCO)ccc2cc(C)ccc21` is 0.865; for `N#CC(C#N)C(C(Sc1ccc([N+](=O)[O-])cc1)=C(O)c1ccccc1)c1cccs1` (stereo not given) it is 1.22.
The figure for `O=C(Oc1ccccc1N1C(=O)C2C3C=CC(C3)C2C1=O)c1ccc([N+](=O)[O-])cc1` (stereo not given) is 0.955; for `CN(C)CCN(C)Cc1cc(Br)cs1` it is 1.08; for `CCC(=O)N1c2ccccc2NC2=C(C(=O)CC(C)(C)C2)C1c1ccc2c(c1)OCO2` (stereo not given) it is 0.857.
The figure for `CC1CN(C(=O)C(Cl)(Cl)Cl)C(C)CN1C(=O)C(Cl)(Cl)Cl` (stereo not given) is 0.8; for `COC(=O)C1=C(C)NC2=C(C(=O)CC(c3ccccc3Cl)C2)C1c1ccc(OC)c(OC)c1` (stereo not given) it is 0.845; for `Cc1c(Cl)cccc1NC(=O)CCC(=O)NNC(=O)c1ccccc1` it is 0.9.
The molecule `COc1cc(CNc2ccc(N3CCCCC3)cc2)cc(Cl)c1OCc1ccc(F)cc1` returned a viability index of 0.923.
The figure for `N#Cc1ccc(N2CCCN(C(=S)NC3CCCC3)CC2)nc1` is 0.51.
`COc1cc2c(-c3cc(Br)ccc3O)nc3c(c(-c4ccccc4)nn3-c3ccccc3)c2cc1OC` registered a viability index of 0.633.
The figure for `O=C1Nc2ccc(Br)cc2C12NCCc1c2[nH]c2ccccc12` (stereo not given) is 0.548.
Turning to `COc1cc(C=NNC(=O)Cc2nnc(N)s2)ccc1O`, the viability index came out at 0.873.
On to `Clc1ccccc1C[n+]1cc(-c2ccccc2)n2c1CCC2`, for which the viability index worked out at 0.978.
To `O=C(Nc1cccc(-c2nc3ccccc3[nH]2)c1)c1ccccc1[N+](=O)[O-]` belongs 0.96; to `Fc1ccc(Nc2nc(NCC3CCCO3)c3ccccc3n2)cc1` (stereo not given), 1.06; to `CN1CCN(c2nc(Nc3ccc(O)cc3)nc3ccccc23)CC1`, 1.13.
`CC(C)CC(=O)Nc1nnc(-c2ccc(Br)cc2)s1` displayed a viability index of 0.957.
The figure for `O=C(Nc1ccccc1C(=O)O)c1cccc(NC(=O)c2ccco2)c1` is 0.73.
To `CCN(CC)CCCN(Cc1cc2cc(OC)ccc2[nH]c1=O)C(=S)Nc1ccc(C)cc1` belongs 0.817; to `Cc1c2c(cc3c1ccc1ccccc13)C[N+]1(CCCCC1)C2`, 0.801.
To `Cc1ccc2cc(C)c(Nc3ccc(Cl)cc3)nc2c1` belongs 0.54.
In turn, `OC(COc1ccc(OCC(O)CN2CCN(CCOc3ccccc3)CC2)cc1)CN1CCN(CCOc2ccccc2)CC1` (stereo not given) gave a viability index of 0.828.
The figure for `COc1ccc(Nc2nc(NN=Cc3cccc(F)c3)nc(Nc3ccc([N+](=O)[O-])cc3)n2)cc1` is 0.628.
`Cc1nc2ccc(Cl)cc2c(O)c1I` displayed a viability index of 0.834.
In turn, `Oc1ccc(-c2cccnc2)cc1CNC1C2CC3CC(C2)CC1C3` (stereo not given) gave a viability index of 0.519.
To `O=C1[C@@H]2Cc3c([nH]c4ccccc34)C(CCc3ccccc3)N2C(=O)CN1CCc1c[nH]c2ccccc12` (stereo not given in full) belongs 1.42; to `COc1ccc(C2CC(=O)C3=C(C2)NC(C)=C(C(=O)OC(C)C)C3c2ccccc2C)cc1OC` (stereo not given), 0.251; to `CCOC(=O)c1c(CNCCN(CC)CC)n(C)c2cc(Br)c(O)cc12`, 0.827.
The figure for `COC(=O)COc1ccc(C=C2SC(=Nc3ccc(F)cc3)NC2=O)cc1` is 0.925.
To `CCOC(=O)C1=C(C)N(CCNc2ncc(C(F)(F)F)cc2Cl)C(=O)CC1` belongs 1.04; to `c1ccc(-c2csc(Nc3nc4cc5c(cc4s3)OCO5)n2)nc1`, 0.273; to `Cc1ccccc1C[n+]1cc(-c2ccc(Cl)cc2)n2c1CCC2`, 1.18.
As for `CN(CC(=O)NC(C)(C)C)S(=O)(=O)c1ccccc1`, the viability index stood at 1.07.
Molecule `CCN1C(=Cc2sc3ccccc3[n+]2C)C=Cc2ccc(C)cc21` showed a viability index of 0.51.
In turn, `CCOC(=O)C1=C(C)NC2=C(C(=O)C(C(=O)OC)C(C)C2)C1c1cc(Br)c(OC)c(OCC)c1` (stereo not given) showed a viability index of 0.839.
To `CC1CCN(C(=O)C2CCCN(S(=O)(=O)c3ccc4[nH]c(-c5ccccc5)nc4c3)C2)CC1` (stereo not given) belongs 0.96; to `COc1ccc(C=NNc2cc(C)nc(-c3ccccc3)n2)cc1OC`, 0.86; to `CCOC(=O)c1c(NC(=O)CSc2nnc(CNC(=O)c3cccs3)n2-c2cccc(Cl)c2)sc2c1CCCC2`, 0.801.
The molecule `Cc1c(Cl)cccc1NC(=S)N1CCCN(c2ccc(C(F)(F)F)cc2[N+](=O)[O-])CC1` registered a viability index of 0.398.
The figure for `Cc1ccc(-c2cn3c([n+]2-c2ccc(C)cc2)CCCCC3)cc1` is 0.888; for `COc1ccccc1NC(=O)CCCC(=O)OC(C)C(=O)c1ccccc1` (stereo not given) it is 1.
To `CCCC(=O)N1c2ccc(OC)cc2-c2c(ssc2=S)C1(C)C` belongs 0.566; to `O=C(C1CCN(c2nnnn2-c2ccccc2)CC1)N1CCc2ccccc2C1`, 0.826; to `COc1ccc(CNCc2cc3c(-c4ccc(C)cc4)nn(-c4ccccc4)c3[nH]c2=O)cc1`, 0.551.
The figure for `CC[N+](CC)=c1scc(-c2ccc([N+](=O)[O-])cc2)s1` is 0.668; for `COc1cc(CN2CCN(c3ccccn3)CC2)cc(I)c1O` it is 0.935; for `CC1=C(C(=O)OC2CCCCC2)C(c2cccc([N+](=O)[O-])c2)C2=C(CCCC2=O)N1` (stereo not given) it is 0.728.
`COc1cccc(C2Sc3ccccc3NC3=C2C(=O)c2ccccc23)c1` (stereo not given) had a viability index of 0.909.
To `OC(CNc1cccc2ccccc12)Cn1c2ccc(Cl)cc2c2cc(Cl)ccc21` (stereo not given) belongs 0.649; to `O=C1NN(c2ccc(Br)cc2)C(=O)C1=Cc1c(O)ccc2ccccc12`, 0.993.
`O=C(C[n+]1cc(-c2ccc(F)cc2)n2c1CCC2)Nc1ccc(Cl)cc1` had a viability index of 1.44.
Molecule `CN(Cc1ccccc1)C(=O)CSc1nc(NCc2ccccc2)c2ccccc2n1` displayed a viability index of 0.975.
To `CCOC(=O)N1CCN(C(=O)C(=O)NNC(=O)COc2ccc(Cl)cc2Br)CC1` belongs 1.08.
To `O=C(COc1ccccc1Cl)OCc1cc(=O)n2nc(C3CC3)sc2n1` belongs 1.36; to `COc1ccc(C(OCCS(=O)(=O)CCO)(c2ccccc2)c2ccc(OC)cc2)cc1`, 0.0248.
To `Cc1ccc(-c2c[n+](Cc3ccc(Cl)cc3)c3n2CCC3)cc1` belongs 0.848; to `CCN1C(=Cc2sc3cc(NC(C)=O)ccc3[n+]2CC)C=Cc2cc(C)ccc21`, 0.645; to `c1ccc2c(c1)[nH]c1c(NCCN3CCCCC3)ncnc12`, 1.09.
`CCN1CCN(c2cc(C)c(C#N)c3nc4ccccc4n23)CC1` returned a viability index of 0.844.
The molecule `CC(C)NC(=O)N1CCN(C(=O)C(Cc2c[nH]c3ccccc23)NC(=O)Nc2cccc(Cl)c2Cl)CC1C` (stereo not given) displayed a viability index of 0.78.
To `CCC1=NN2C(=N)/C(=C/c3cn(CCOc4ccccc4C(C)CC)c4ccccc34)C(=O)N=C2S1` (stereo not given) belongs 0.883; to `Oc1ccc(-c2cnccn2)cc1CNC1CCN(Cc2ccccc2)CC1`, 1.3; to `CCc1nnc2sc(-c3ccc(NC(=O)c4ccc(Br)o4)cc3)nn12`, 0.625.
To `O=C1c2ccc3c4c(ccc(c24)C(=O)N1CCCCO)C(=O)N(CCCCO)C3=O` belongs 0.423.
In the case of `Cc1ccc(NC(=O)c2ccc(NCCCN3CCC(C)CC3)c([N+](=O)[O-])c2)cc1F`, the viability index is 1.18.
In turn, `Cc1cc(Nc2ccc(O)cc2)nc2cccc(O)c12` came in with a viability index of 0.735.
With `CCCCN1C(=O)NC(c2ccc(NC(=O)c3cccs3)cc2)C(C(=O)OC(C)C)=C1C` (stereo not given), the viability index amounted to 0.726.
The figure for `COCCOC(=O)C1=C(C)NC2=C(C(=O)CC(c3ccc(OC)c(OC)c3)C2)C1c1ccc(F)cc1` (stereo not given) is 0.753; for `O=C(C=Cc1ccccc1)c1c(-c2ccccc2)c2cc([N+](=O)[O-])ccc2[nH]c1=O` it is 0.734; for `CC(=O)c1cccc(CN2CCC(C(=O)Nc3ccc(-n4nc(C)cc4C)cc3)CC2)c1` it is 0.942.
The figure for `O=C(CSc1ccc2nnc(-c3cccs3)n2n1)Nc1ccc2c(c1)OCCO2` is 1.11; for `COc1ccc2cc(C)c3nnc(SCC(=O)N4CCN(C(=O)c5ccco5)CC4)n3c2c1` it is 0.556.

The values are drawn from the supplement of paper PMC4723716.
